# Some of the results follow. These are noisy estimates, calculated here from bound and input reads.
# Molecular target: T1, Pho4 (S. cerevisiae) (UniProt P07270)
# T1 sequence: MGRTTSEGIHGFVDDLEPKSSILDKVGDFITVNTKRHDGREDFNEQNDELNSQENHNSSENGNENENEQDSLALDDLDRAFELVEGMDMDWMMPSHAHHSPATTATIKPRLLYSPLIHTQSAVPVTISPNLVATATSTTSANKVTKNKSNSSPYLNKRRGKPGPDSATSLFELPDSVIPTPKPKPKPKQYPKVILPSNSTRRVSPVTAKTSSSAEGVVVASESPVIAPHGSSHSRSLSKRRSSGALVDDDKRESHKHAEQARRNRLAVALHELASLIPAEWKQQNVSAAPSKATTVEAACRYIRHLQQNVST
# Experiment: relative binding free energy (BET-seq); higher = weaker binding
# Details: reference: library average
row,Sequence,relative binding free energy [kcal/mol]
1,CTTAGCACGTGGAGAG,-0.01
2,AAGGGCACGTGATGCG,-0.14
3,TGATTCACGTGGTTTG,0.25
4,GTACACACGTGAGTGG,0.28
5,TTGGTCACGTGAGTTC,0.35
6,GTGTACACGTGCGGGA,0
7,GGTGTCACGTGCGAGG,0.23
8,TGATACACGTGTGTTC,-0.02
9,TGACGCACGTGAGTAT,0.21
10,ATCATCACGTGGGTTG,-0.14
11,ATCGACACGTGGGGCT,0.03
12,TGTGTCACGTGCGTAG,-0.06
13,GAGGGCACGTGAGCGT,0.1
14,GAGGTCACGTGCTGAT,0.12
15,GGATTCACGTGAGTGT,0.47
16,GGTCTCACGTGGGTTA,0.02
17,GTCTGCACGTGGCGTG,-0.12
18,TGATGCACGTGTTGTT,0
19,TGTGACACGTGCGATT,0.04
20,TAAGACACGTGTAAGG,0.07
21,TGCCTCACGTGGTGTT,0.08
22,CGATTCACGTGAGTTT,0.31
23,ATTTTCACGTGATGAT,0.33

row,Sequence,relative binding free energy [kcal/mol]
1,CTATGCACGTGCGGTT,-0.05
2,GTTGTCACGTGTGACG,0.2
3,TTCGTCACGTGATTTT,0.3
4,TGGAACACGTGTTCGG,-0.07
5,GTAGCCACGTGCTTGT,0.05
6,TACTTCACGTGATGGT,0.35
7,TATTACACGTGCTGTA,0.06
8,TTTGTCACGTGCCATG,0.06
9,GATCTCACGTGTTGTT,0.28
10,TGGAACACGTGCGAGG,-0.05
11,GTCGTCACGTGAAGGG,0.29
12,AGATTCACGTGGGGAA,0.23
13,GTTTGCACGTGCGGGG,-0.02
14,TGATTCACGTGGCGTG,0.21
15,AGGATCACGTGTAATG,0.2
16,GTTAACACGTGGGGCG,-0.14
17,GACAACACGTGGGTTG,0.02
18,AAGATCACGTGGGTGT,0.02
19,TGTCGCACGTGCAGGG,-0.16
20,AGAGGCACGTGTGCAT,-0.13
21,AAGTTCACGTGGTGAT,0.14
22,TTGGTCACGTGCGGAC,-0.01
23,AGGTACACGTGCTTGA,0

row,Sequence,relative binding free energy [kcal/mol]
1,TGGCGCACGTGGTGAT,-0.32
2,TGTTGCACGTGCGGCG,-0.19
3,AATATCACGTGACGGG,0.25
4,AGCGCCACGTGTTGGG,-0.04
5,TGAGTCACGTGCGCTG,-0.03
6,TATCACACGTGTTTTT,0.16
7,TGGTTCACGTGCGGGA,0.29
8,GGCGACACGTGGATGG,0.11
9,TTGACCACGTGGGCGT,-0.24
10,AGTTGCACGTGGCATT,-0.04
11,AATTTCACGTGGGGTT,0.2
12,TGTGACACGTGAGTCG,0.25
13,TGATACACGTGTCTGG,0.1
14,TTATTCACGTGAAATA,0.26
15,TTCTTCACGTGAGGTG,0.47
16,TTCTACACGTGTGAGT,0.13
17,CGGGGCACGTGGGCAT,-0.27
18,TAGTTCACGTGTTAGG,0.3
19,GTCGTCACGTGTTGAA,0.18
20,GGTCTCACGTGATAGT,0.33
21,TGTGTCACGTGCTCAG,0.03
22,CTTTTCACGTGTTGGG,0.27
23,TCCTTCACGTGGGGTA,0.13

row,Sequence,relative binding free energy [kcal/mol]
1,GACATCACGTGTTGGT,0.14
2,GTTTTCACGTGTACGT,0.3
3,TGTGTCACGTGTGTGC,0.13
4,TAGTCCACGTGAAGTG,0.37
5,TTGTACACGTGTGATT,0.15
6,CGGGCCACGTGTGGCG,0.05
7,TGTATCACGTGTTGGT,0.17
8,ATCATCACGTGGGATG,0.01
9,GTTATCACGTGATCGT,0.32
10,AGGCGCACGTGGTCTG,-0.27
11,GAGTTCACGTGTGCGG,0.29
12,TGGTGCACGTGGCTGA,-0.09
13,TGATACACGTGTAGTA,0.03
14,AGTAGCACGTGTTGCA,-0.15
15,TATTACACGTGCGTGA,0
16,TATTCCACGTGGGGAG,0.06
17,AGGCTCACGTGTTGGT,0.29
18,TTTTCCACGTGGCAGT,0.14
19,AGTTACACGTGGACTG,0.1
20,CTGGACACGTGGTGGA,-0.03
21,AGGCTCACGTGGTAGG,0.22
22,CAGCTCACGTGGTGTG,0.09
23,CGGTTCACGTGTAGGT,0.23

row,Sequence,relative binding free energy [kcal/mol]
1,ATGATCACGTGGTCGT,0.1
2,GTCATCACGTGGTCGG,0.03
3,TGGGCCACGTGGATCG,-0.1
4,GGGTGCACGTGTGCAA,0.02
5,TAGTTCACGTGAGTCG,0.4
6,TTATTCACGTGACTTG,0.38
7,TGGTGCACGTGCGTAT,-0.13
8,ATCAGCACGTGTAAGT,0.09
9,GAAGGCACGTGGGGCG,-0.2
10,TGGAACACGTGGCTGG,-0.06
11,ACGATCACGTGGGTTT,0.05
12,TGTTGCACGTGTCGCT,-0.05
13,TTCTTCACGTGCGGGT,0.25
14,TAGAGCACGTGGAGAT,0.01
15,TCTTACACGTGTAAGG,0.13
16,ATGAGCACGTGTTGTT,-0.15
17,TGTAGCACGTGTCGGC,-0.09
18,ATGGGCACGTGATCTG,-0.13
19,AGGAGCACGTGCCGGT,-0.09
20,GTTTACACGTGGATAT,0.19
21,GTAGGCACGTGGGCCT,-0.2
22,TAGTACACGTGCTATG,0.08
23,ATGTCCACGTGCGTGT,-0.13

# From the BET-seq Pho4 binding data (Le et al. 2018)
